From the supplement of paper PMC9046079
Counter-ions that a name gives are not always drawn. ± gives the standard deviation of the averaged measurements. Some of the results follow.

Experiments:
[1] = test system: murine small intestinal organoids (ENR+CD Paneth differentiation); assay: cellular ATP (CellTiter-Glo 3D) relative to plate median (log10 fold change); higher = more viable cells; conditions: 6 d
[2] = test system: murine small intestinal organoids (ENR+CD Paneth differentiation); assay: carbachol-stimulated secreted lysozyme activity relative to plate median (log10 fold change); higher = more Paneth cell lysozyme secretion; conditions: 6 d, carbachol 10 µM
[3] = test system: murine small intestinal organoids (ENR+CD Paneth differentiation); assay: basal (non-stimulated) secreted lysozyme activity relative to plate median (log10 fold change); higher = more Paneth cell lysozyme secretion; conditions: 6 d
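Wherever basal (non-stimulated) secreted lysozyme activity relative to plate median is given: ISC-enriched organoid precursors grown as 2.5D pseudo-monolayer on Matrigel, compound given on day 0 and day 3, plate values LOESS-normalized before median fold change, three murine donors.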
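Wherever cellular ATP (CellTiter-Glo 3D) relative to plate median is given: 2.5D pseudo-monolayer culture of ISC-enriched organoids partly embedded atop Matrigel, compound added on day 0 and again on day 3, per-plate LOESS correction before median fold change.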

Structure (SMILES) | cellular ATP (log10) ([1]; 0.08 µM) | cellular ATP (log10) ([1]; 0.4 µM) | cellular ATP (log10) ([1]; 2 µM) | cellular ATP (log10) ([1]; 10 µM) | carbachol-stimulated secreted lysozyme activity (log10) ([2]; 0.08 µM) | carbachol-stimulated secreted lysozyme activity (log10) ([2]; 0.4 µM) | carbachol-stimulated secreted lysozyme activity (log10) ([2]; 2 µM) | carbachol-stimulated secreted lysozyme activity (log10) ([2]; 10 µM) | basal (log10) ([3]; 0.08 µM) | basal (log10) ([3]; 0.4 µM) | basal (log10) ([3]; 2 µM) | basal (log10) ([3]; 10 µM)
CC(=O)c1cc([N+](=O)[O-])c(Sc2ccc(F)cc2F)s1 | -0.216 ± 0.24 | 0.049 ± 0.2 | -0.134 ± 0.076 | -0.13 ± 0.13 | -0.253 ± 0.26 | 0.0734 ± 0.11 | -0.0544 ± 0.034 | -0.149 ± 0.09 | 0.0388 ± 0.16 | -0.00469 ± 0.021 | 0.0285 ± 0.088 | -0.0559 ± 0.073
C1=N/C2=N/c3ccc(OCCN4CCCC4)c(c3)COC/C=C/COCc3cccc(c3)C(=C1)N2 [Pacritinib (SB1518)] | -0.00582 ± 0.19 | 0.0987 ± 0.23 | -0.235 ± 0.19 | -1.28 ± 0.55 | 0.0245 ± 0.11 | -0.0861 ± 0.049 | -0.377 ± 0.03 | -0.549 ± 0.024 | 0.0914 ± 0.068 | -0.0343 ± 0.095 | -0.219 ± 0.13 | -0.275 ± 0.11
Nc1nc(OCc2cc(Br)cs2)c2[nH]cnc2n1 [Lomeguatrib] | -0.426 ± 0.66 | -0.309 ± 0.55 | 0.0745 ± 0.22 | -0.0803 ± 0.26 | -0.0345 ± 0.1 | 0.0249 ± 0.079 | -0.0926 ± 0.049 | -0.156 ± 0.11 | -0.0502 ± 0.036 | -0.0185 ± 0.077 | -0.0222 ± 0.054 | -0.104 ± 0.025
COc1cccc(C=NCCN=Cc2cccc(OC)c2[O-])c1[O-].[Cl-].[Mn+3] | -0.0147 ± 0.087 | -0.162 ± 0.3 | 0.0909 ± 0.3 | -0.0238 ± 0.47 | 0.04 ± 0.043 | 0.103 ± 0.21 | -0.0465 ± 0.047 | -0.19 ± 0.094 | 0.0682 ± 0.089 | 0.00298 ± 0.0042 | 0.0283 ± 0.069 | -0.0852 ± 0.05
NCC(=O)Nc1ccc(-n2nc(C(F)(F)F)cc2-c2ccc3c(ccc4ccccc43)c2)cc1 | 0.205 ± 0.15 | 0.114 ± 0.36 | 0.233 ± 0.13 | 0.0776 ± 0.34 | 0.144 ± 0.031 | 0.197 ± 0.03 | 0.0447 ± 0.032 | -0.187 ± 0.03 | 0.0868 ± 0.037 | 0.0328 ± 0.039 | 0.0528 ± 0.041 | -0.0485 ± 0.036
O=C(NC[C@H]1CN(c2ccc(N3CCOCC3=O)cc2)C(=O)O1)c1ccc(Cl)s1 [Rivaroxaban] | 0.0731 ± 0.13 | 0.168 ± 0.21 | 0.11 ± 0.25 | 0.0254 ± 0.1 | 0.0961 ± 0.14 | 0.0827 ± 0.34 | 0.0113 ± 0.024 | -0.0404 ± 0.088 | 0.0876 ± 0.097 | -0.0347 ± 0.06 | 0.225 ± 0.2 | -0.0428 ± 0.052
CCCCN1CCCCC1C(=O)Nc1c(C)cccc1C (stereo not drawn) [Bupivacaine HCl] | -0.0033 ± 0.19 | -0.217 ± 0.19 | -0.3 ± 0.21 | -0.364 ± 0.15 | 0.169 ± 0.16 | -0.21 ± 0.035 | -0.286 ± 0.035 | -0.358 ± 0.046 | 0.00179 ± 0.027 | -0.1 ± 0.052 | -0.137 ± 0.083 | -0.195 ± 0.13
C=CCn1c(=O)c2cnc(Nc3ccc(N4CCN(C)CC4)cc3)nc2n1-c1cccc(C(C)(C)O)n1 | 0.165 ± 0.12 | -0.45 ± 0.2 | -0.804 ± 0.31 | -1.03 ± 0.4 | 0.0995 ± 0.014 | -0.247 ± 0.071 | -0.23 ± 0.075 | -0.302 ± 0.11 | 0.0383 ± 0.059 | -0.153 ± 0.074 | -0.215 ± 0.081 | -0.181 ± 0.12
CNC(=O)[C@H](Cc1c[nH]c2ccccc12)NC(=O)[C@@H](CC(=O)NO)CC(C)C [Ilomastat (GM6001, Galardin)] | 0.197 ± 0.25 | 0.163 ± 0.24 | 0.0906 ± 0.078 | -0.11 ± 0.14 | 0.246 ± 0.12 | 0.11 ± 0.17 | 0.0511 ± 0.031 | -0.131 ± 0.18 | 0.0553 ± 0.12 | -0.0106 ± 0.13 | 0.00741 ± 0.047 | -0.106 ± 0.11
O=C1NC(=O)/C(=C/c2cccc(C(F)(F)F)c2)S1 | -0.284 ± 0.42 | -0.559 ± 0.55 | -0.676 ± 0.64 | -0.536 ± 0.52 | 0.0641 ± 0.17 | -0.197 ± 0.4 | -0.192 ± 0.31 | -0.311 ± 0.2 | -0.0032 ± 0.18 | -0.166 ± 0.15 | -0.111 ± 0.21 | -0.208 ± 0.15
CC(C=CC(=O)NO)=CC(C)C(=O)c1ccc(N(C)C)cc1 (stereo not drawn) [Trichostatin A (TSA)] | -0.52 ± 1 | -0.472 ± 0.41 | -0.352 ± 0.38 | -0.602 ± 0.4 | -0.206 ± 0.069 | -0.135 ± 0.28 | -0.105 ± 0.28 | -0.3367 ± 0.00068 | -0.113 ± 0.062 | -0.116 ± 0.12 | -0.118 ± 0.1 | -0.178 ± 0.071
C#CCN[C@@H]1CCc2ccccc21 [Rasagiline Mesylate] | 0.22 ± 0.22 | 0.166 ± 0.26 | 0.0778 ± 0.0048 | 0.0938 ± 0.29 | 0.102 ± 0.27 | 0.103 ± 0.0024 | 0.199 ± 0.24 | 0.129 ± 0.13 | 0.06 ± 0.17 | 0.159 ± 0.19 | 0.035 ± 0.097 | 0.00408 ± 0.093
CCOC(=O)C1=C(N)Oc2ccc(Br)cc2C1C(C#N)C(=O)OCC (stereo not drawn) | 0.534 ± 0.22 | 0.526 ± 0.031 | 0.554 ± 0.024 | 0.388 ± 0.11 | 0.156 ± 0.024 | 0.337 ± 0.3 | 0.153 ± 0.05 | 0.0469 ± 0.24 | 0.121 ± 0.05 | 0.137 ± 0.077 | 0.154 ± 0.033 | 0.132 ± 0.15
CC(C)C[C@H](NC(=O)[C@@H](NC(=O)c1cccc(-c2ccccc2)n1)[C@@H](C)O)B(O)O | -0.953 ± 0.18 | -1.64 ± 0.61 | -0.99 ± 1.1 | -1.15 ± 0.81 | -0.229 ± 0.047 | -0.234 ± 0.079 | -0.26 ± 0.1 | -0.194 ± 0.093 | -0.108 ± 0.067 | -0.0762 ± 0.08 | -0.0627 ± 0.047 | -0.0354 ± 0.046
OC[C@H]1O[C@@H](c2ccc(Cl)c(Cc3ccc(O[C@H]4CCOC4)cc3)c2)[C@H](O)[C@@H](O)[C@@H]1O | -0.296 ± 0.24 | -0.0746 ± 0.17 | -0.192 ± 0.058 | -0.134 ± 0.23 | -0.000657 ± 0.00093 | -0.0469 ± 0.048 | -0.142 ± 0.14 | -0.043 ± 0.042 | -0.00594 ± 0.07 | -0.0338 ± 0.028 | -0.00935 ± 0.06 | 0.0166 ± 0.035
C#Cc1cccc(Nc2ncnc3cc(OCCOC)c(OCCO)cc23)c1 | 0.106 ± 0.39 | -0.13 ± 0.5 | -1.26 ± 0.37 | -1.1 ± 0.35 | 0.111 ± 0.082 | -0.217 ± 0.075 | -0.454 ± 0.026 | -0.429 ± 0.0088 | 0.115 ± 0.14 | -0.224 ± 0.025 | -0.287 ± 0.074 | -0.325 ± 0.093
Cn1cnc2c(F)c(Nc3ccc(Br)cc3Cl)c(C(=O)NOCCO)cc21 [Selumetinib (AZD6244)] | -0.544 ± 0.88 | -0.0758 ± 0.23 | -0.323 ± 0.22 | -0.39 ± 0.28 | -0.0816 ± 0.27 | 0.0268 ± 0.04 | -0.00753 ± 0.32 | -0.181 ± 0.15 | -0.047 ± 0.13 | 0.000287 ± 0.063 | -0.0541 ± 0.086 | -0.133 ± 0.038
CCOC(=O)c1ccc(NC2CCCCC2)c(N)c1 [Ferrostatin-1 (Fer-1)] | 0.312 ± 0.24 | 0.453 ± 0.2 | 0.215 ± 0.2 | -0.0457 ± 0.18 | 0.092 ± 0.049 | 0.191 ± 0.095 | 0.0779 ± 0.1 | -0.0324 ± 0.15 | 0.108 ± 0.072 | 0.116 ± 0.063 | 0.07 ± 0.079 | 0.0133 ± 0.093
CO[C@H]1C[C@@H]2CC[C@@H](C)[C@@](O)(O2)C(=O)C(=O)N2CCCC[C@H]2C(=O)O[C@H]([C@H](C)C[C@@H]2CC[C@@H](OC(=O)C(C)(CO)CO)[C@H](OC)C2)CC(=O)[C@H](C)/C=C(\C)[C@@H](O)[C@@H](OC)C(=O)[C@H](C)C[C@H](C)/C=C/C=C/C=C/1C | 0.33 ± 0.51 | 0.358 ± 0.28 | 0.409 ± 0.23 | 0.292 ± 0.26 | 0.0869 ± 0.0064 | 0.104 ± 0.17 | 0.0967 ± 0.12 | -0.0545 ± 0.26 | 0.07 ± 0.081 | 0.143 ± 0.1 | 0.0842 ± 0.11 | 0.0412 ± 0.24
O=C(O)/C=C/c1ccc(Cn2ccnc2)cc1 [Ozagrel HCl] | 0.0494 ± 0.33 | 0.133 ± 0.25 | 0.183 ± 0.25 | 0.229 ± 0.26 | 0.0699 ± 0.18 | 0.107 ± 0.0014 | 0.145 ± 0.13 | 0.0316 ± 0.12 | 0.202 ± 0.24 | 5.96e-06 ± 0.03 | 0.0354 ± 0.031 | -0.00706 ± 0.094
Cc1ccc(NCCCc2ccccc2)c(N)c1 | 0.193 ± 0.26 | 0.23 ± 0.27 | 0.0738 ± 0.25 | 0.0461 ± 0.16 | 0.164 ± 0.022 | 0.0558 ± 0.044 | -0.0395 ± 0.035 | -0.0739 ± 0.08 | 0.0545 ± 0.089 | 0.079 ± 0.12 | -0.00191 ± 0.098 | -0.0458 ± 0.12
CC[C@H](NC(=O)[C@H](C)NC)C(=O)N1C[C@@H](O)C[C@H]1Cc1c(-c2[nH]c3cc(F)ccc3c2C[C@@H]2C[C@H](O)CN2C(=O)[C@H](CC)NC(=O)[C@H](C)NC)[nH]c2cc(F)ccc12 [Birinapant] | -0.257 ± 0.15 | 0.0945 ± 0.19 | 0.227 ± 0.42 | 0.122 ± 0.049 | 0.099 ± 0.37 | 0.193 ± 0.13 | -0.0238 ± 0.022 | -0.105 ± 0.07 | 0.0323 ± 0.012 | -0.0117 ± 0.061 | 0.0364 ± 0.056 | -0.0294 ± 0.035
COc1cc(N2CCN(C)CC2)ccc1Nc1nccc(-c2cn(C)c3cnccc23)n1 | 0.292 ± 0.28 | 0.337 ± 0.49 | 0.15 ± 0.11 | -0.533 ± 0.67 | 0.0599 ± 0.074 | 0.124 ± 0.087 | 0.116 ± 0.0047 | -0.221 ± 0.21 | 0.128 ± 0.097 | 0.0823 ± 0.12 | 0.0582 ± 0.059 | -0.148 ± 0.11
CCC(CC)(NC(=O)C(C)C)C(=O)N[C@@H](CCCN=C(N)N)C(=O)NC1(C(=O)NC(c2ccc(F)cc2)c2ccc(F)cc2)CCCC1 | -0.205 ± 0.26 | -0.132 ± 0.029 | -0.233 ± 0.018 | -0.403 ± 0.11 | -0.00619 ± 0.14 | 0.0142 ± 0.0049 | 0.000103 ± 0.065 | -0.198 ± 0.2 | -0.0252 ± 0.04 | -0.0104 ± 0.062 | 0.0264 ± 0.15 | -0.164 ± 0.15
